The results in this text go back to article PMC6919601, “Identification of Plasmodium dipeptidyl aminopeptidase allosteric inhibitors by high throughput screening” (PLoS ONE, 2019).

About 230 (0.21%) of roughly 110,000 compounds showed an effect of 50% or more. Some of the results follow.
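Further: 30 min substrate incubation versus DMSO and 10 µM JCP410 controls.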

Chain of DPAP1 (Q8IIJ9 whole entry, looked up): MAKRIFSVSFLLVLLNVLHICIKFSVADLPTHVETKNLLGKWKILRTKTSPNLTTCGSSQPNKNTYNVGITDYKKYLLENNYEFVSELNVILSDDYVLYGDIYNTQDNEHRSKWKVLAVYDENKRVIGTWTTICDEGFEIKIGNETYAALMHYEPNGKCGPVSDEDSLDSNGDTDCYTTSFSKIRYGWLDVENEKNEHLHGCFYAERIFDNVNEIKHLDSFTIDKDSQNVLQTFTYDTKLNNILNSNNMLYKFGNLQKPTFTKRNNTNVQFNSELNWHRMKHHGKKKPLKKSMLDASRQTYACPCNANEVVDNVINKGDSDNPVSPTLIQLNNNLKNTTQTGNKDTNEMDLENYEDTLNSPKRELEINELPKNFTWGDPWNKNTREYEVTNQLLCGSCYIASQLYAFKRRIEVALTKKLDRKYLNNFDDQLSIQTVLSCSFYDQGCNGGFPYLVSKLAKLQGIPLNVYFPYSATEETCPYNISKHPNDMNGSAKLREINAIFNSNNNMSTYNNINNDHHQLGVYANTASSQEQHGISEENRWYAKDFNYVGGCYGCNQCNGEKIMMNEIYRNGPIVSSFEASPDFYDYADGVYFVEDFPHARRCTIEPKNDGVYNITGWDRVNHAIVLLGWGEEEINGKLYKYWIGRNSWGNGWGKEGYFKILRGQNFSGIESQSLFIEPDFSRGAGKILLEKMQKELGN

This assay has as its target DPAP1 (Plasmodium falciparum, UniProt Q8IIJ9). The assay can be described thus: primary screen, percent inhibition; read by cleavage of a fluorogenic dipeptide substrate; higher = more effect of the substance. Details: species or system P. falciparum D10 trophozoite lysates; single well.
`COc1ccc(OC)c(C(=O)c2ccc(C(=O)NC3CC(C)(C)NC(C)(C)C3)cc2)c1`: the “% Inhibition @ 10 uM” value is reported as -7.23%.

On to `CCOc1ccc(/C=C/C(=O)NCC2CCCO2)cc1` (centres unmarked), for which the “% Inhibition @ 10 uM” value is given as -1.52%.

Consider `COc1ccc(CN2C(=O)c3cccnc3C2=O)cc1S(=O)(=O)NC(C)C`, for which the “% Inhibition @ 10 uM” value was 6.97%.

For the compound `COC(=O)Nc1ccc2c(c1)N(C(=O)CN(C)C)c1ccccc1CC2`, the “% Inhibition @ 10 uM” value is -0.736%.

In the case of `CCOc1ccc(-c2cc(C(=O)O)c3cccc(C)c3n2)cc1`, the “% Inhibition @ 10 uM” value was found to be 2.09%.

As for `c1cnc(NC2CCCCCC2)nc1`, the “% Inhibition @ 10 uM” value was determined as 3.42%.

`Clc1ccc(NCC2CCCCC2)nn1`: the “% Inhibition @ 10 uM” value is reported as 4.11%.

As to `CC1CCN(S(=O)(=O)c2ccc3c(ccn3CCC(=O)NC3CCCC(C)C3C)c2)CC1` (centres unmarked), the “% Inhibition @ 10 uM” value stood at 2.45%.

On to `CC1(C)CC(n2c(=S)[nH]c3c(c2=O)C2(CCCCC2)Cc2ccccc2-3)CCO1` (centres unmarked), for which the “% Inhibition @ 10 uM” value was -1.99%.

Regarding `CCCCCOC(=O)C1=C(C)NC(=O)NC1c1ccc(Cl)c(Cl)c1` (centres unmarked), the “% Inhibition @ 10 uM” value stood at 5.7%.

As for `Cc1ccccc1N1CCN(CN2C(=O)S/C(=C/c3ccco3)C2=O)CC1`, the “% Inhibition @ 10 uM” value is 6.78%.

Take `COc1ccc2[nH]c(N3CCOCC3)nc2c1`: the “% Inhibition @ 10 uM” value is 0.0538%.

For the compound `COc1ccc(C2C(C#N)=C(N)N(c3ccccc3)C3=C2C(=O)CCC3)cc1` (centres unmarked), the “% Inhibition @ 10 uM” value worked out at 0.687%.

With `CCn1nccc1C(=O)N(C)C12CC3CC(CC(C3)C1)C2`, the “% Inhibition @ 10 uM” value is reported as -1.37%.

Turning to `CCOC(=O)C1=C(C)OC(N)=C(C#N)C1c1cc(Br)cs1` (centres unmarked), the “% Inhibition @ 10 uM” value is on record as -3.72%.

Consider `CC1=[N+]([O-])C(C)(C)[N+]([O-])=C1c1ccc(Cl)cc1`, for which the “% Inhibition @ 10 uM” value is 1.84%.

Regarding `Cc1ccc(C(=O)n2cnc3ccccc32)cc1`, the “% Inhibition @ 10 uM” value came out at 3.74%.

As to `COc1ccc(C(=O)CSc2nnnn2C2CCCCC2)cc1OC`, the “% Inhibition @ 10 uM” value stood at 0.883%.

On to `CCC1=NN(C(=O)c2ccc(OC)cc2)C(O)(c2ccc(OC)cc2)C1` (centres unmarked), for which the “% Inhibition @ 10 uM” value came out at 6.74%.

As for `CCCN(CCO)Cc1ccc(Cl)cc1Cl`, the “% Inhibition @ 10 uM” value is reported as -2.34%.

`C=Cc1ccc(Cn2c(C)c(CNCc3ccccc3OC)c(C(=O)O)c2C)cc1`: the “% Inhibition @ 10 uM” value was found to be 15.3%.

Take `CC(=O)c1cccc(NC(=O)c2ccc(C(=O)Nc3cccc(C(C)=O)c3)nc2)c1`: the “% Inhibition @ 10 uM” value is on record as 2.03%.

Regarding `N#Cc1ccc(Oc2ccc(-c3ccccc3)cc2)cc1C#N`, the “% Inhibition @ 10 uM” value is reported as -4.96%.

`Clc1ccc(-c2csc(N3CCOCC3)n2)c(Cl)c1`: the “% Inhibition @ 10 uM” value came out at 8.6%.

Turning to `CCc1ccc2oc(C(=O)NCc3ccc(C)cc3)cc(=O)c2c1`, the “% Inhibition @ 10 uM” value is on record as -5.31%.

With `N#CC1=C(N)N(c2ccccc2F)C2=C(C(=O)CCC2)C1c1ccsc1` (centres unmarked), the “% Inhibition @ 10 uM” value turned out to be 3.46%.

With `CN(Cc1ccccc1)S(=O)(=O)c1nnc(NC(=O)c2ccc(F)cc2)s1`, the “% Inhibition @ 10 uM” value is on record as -4.37%.

In the case of `COC(=O)c1ccccc1Nc1nc(-c2ccccc2)cc(-c2ccccc2)n1`, the “% Inhibition @ 10 uM” value is listed as -3.77%.

Regarding `COCC(=O)NCc1nc2ccccc2n1Cc1ccccc1F`, the “% Inhibition @ 10 uM” value is given as 2.64%.

For `CC1=NO[C@]2(C)CCC3C(C)(C)CCC[C@]3(C)[C@H]2C1` (some centres unmarked), the “% Inhibition @ 10 uM” value was -3.27%.

As for `CCC1CCCCN1CCCNC(=O)C1CCN(C(=O)c2cc3sccc3n2C)CC1` (centres unmarked), the “% Inhibition @ 10 uM” value came to 1.8%.

`COc1ccc(CC(=O)Nc2c(C(=O)N3CCC(N4CCCCC4)CC3)oc3ccccc23)cc1`: the “% Inhibition @ 10 uM” value is given as -2.53%.

For `Cc1cc2ncn(C(=O)Cn3cnc4c3c(=O)n(C)c(=O)n4C)c2cc1C`, the “% Inhibition @ 10 uM” value is on record as 1.58%.

Consider `CCOc1cc(C2C=C(c3ccc(F)cc3)Nc3ncnn32)ccc1OC(F)F` (centres unmarked), for which the “% Inhibition @ 10 uM” value is on record as -1.62%.

Take `CC1CCN(S(=O)(=O)c2ccc(NC(=O)Cc3ccc(Br)cc3)cc2)CC1`: the “% Inhibition @ 10 uM” value is recorded as 1.52%.

`OC1(c2ccc(Br)cc2)CCN(C2CCCCCC2)CC1`: the “% Inhibition @ 10 uM” value is listed as -1.82%.

Regarding `COc1ccc(C2=Cc3ccccc3C(C)(C)O2)cc1`, the “% Inhibition @ 10 uM” value is on record as 1.72%.

As for `Cc1ccc(/C(O)=C/c2nc3ccc([N+](=O)[O-])cc3nc2/C=C(\O)c2ccc(C)cc2)cc1`, the “% Inhibition @ 10 uM” value worked out at 2.6%.

For the compound `Cc1ccc(Cn2ncc(Cl)c(Cl)c2=O)cc1`, the “% Inhibition @ 10 uM” value turned out to be 38.7%.

Regarding `O=C(CSc1nc(-c2ccccc2Cl)n[nH]1)NC1CCCCC1`, the “% Inhibition @ 10 uM” value is reported as -3.63%.

In the case of `CCC(Sc1nc2nccnc2c(=O)n1CCc1ccccc1)C(=O)NCc1ccc(C)cc1` (centres unmarked), the “% Inhibition @ 10 uM” value is 0.813%.

For `CC(C)C(NC(=O)c1ccc(C23CC4CC(CC(C4)C2)C3)cc1)C(=O)O` (centres unmarked), the “% Inhibition @ 10 uM” value is -4.69%.

Regarding `O=C(NC(Cc1ccccc1)C(=O)O)/C(=C/c1ccc(Cl)cc1)NC(=O)c1ccccc1` (centres unmarked), the “% Inhibition @ 10 uM” value is on record as 3.95%.

Consider `CNS(=O)(=O)c1cn(CC(=O)NCc2ccc(F)cc2)cc1S(=O)(=O)NC`, for which the “% Inhibition @ 10 uM” value is on record as -1.05%.

Consider `Cc1ccc(OCCOc2ccccc2C=C2C(=O)N(C)C(=O)N(C)C2=O)cc1`, for which the “% Inhibition @ 10 uM” value is -0.467%.

Regarding `COC(=O)C1=C(C)N(c2ccc(Cl)cc2)C(=O)/C1=C\c1ccccc1O`, the “% Inhibition @ 10 uM” value is 0.392%.

As for `COc1cc(C(=O)NCCc2nc3ccccc3[nH]2)cc(OC)c1OC`, the “% Inhibition @ 10 uM” value is on record as 19.2%.

As to `COc1ccc(C(=O)Nc2ccccc2C(=O)O)cc1N`, the “% Inhibition @ 10 uM” value was -5.98%.

In the case of `O=C(CCC(=O)n1ncc2ccccc21)NC1CCCCC1`, the “% Inhibition @ 10 uM” value is -1.11%.

As for `CC1(C)CC2=Nc3nc(C(F)(F)F)nn3C(c3ccccc3F)C2=C(O)C1` (centres unmarked), the “% Inhibition @ 10 uM” value worked out at 1.73%.
